“And” between values parts separate entries of the source, which are not always exact repeats. Identical values can stand only once. Screen size: about 48,000 compounds; about 1,200 (2.5%) were called active. Another 2% or so got no clear call; they are omitted.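 Rule for the calls: active = activation of at least 60% and not above a set upper limit (about 1 call in 100 departs from these limits); inconclusive = activation of 40% to 60%, or above that upper limit; inactive = activation under 40%.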 The list shows a part of the results.
These compounds were tested against Probable G-protein coupled receptor 32 (Homo sapiens) (UniProt O75388) (assay: qHTS for Agonists of Human Resolvin D1 Receptor DRV1). Settings: CHO-K1 GPR32 beta-arrestin PathHunter luminescence, 90 min; at 76.9 µM; active compounds read high; zero percent set by DMSO-only wells.
Sequence of UniProt O75388 (O75388 whole entry, looked up, the tested form may be a part): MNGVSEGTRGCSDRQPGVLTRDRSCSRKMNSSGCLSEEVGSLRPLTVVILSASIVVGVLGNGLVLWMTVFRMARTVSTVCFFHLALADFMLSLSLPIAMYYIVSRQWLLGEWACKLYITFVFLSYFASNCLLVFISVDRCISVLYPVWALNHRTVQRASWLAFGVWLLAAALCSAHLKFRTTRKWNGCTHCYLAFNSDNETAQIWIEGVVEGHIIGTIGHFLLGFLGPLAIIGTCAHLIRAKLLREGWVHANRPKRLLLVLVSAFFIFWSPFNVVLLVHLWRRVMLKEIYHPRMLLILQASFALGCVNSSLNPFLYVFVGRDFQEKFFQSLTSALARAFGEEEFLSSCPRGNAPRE
In short: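 Agonism was scored as beta-arrestin recruitment to ProLink-fused GPR32 in stably transfected CHO-K1 cells, giving a chemiluminescent beta-Gal signal; compounds were incubated 90 min at 37 °C.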
For `COc1cccc(CC(=O)Nc2ccc3nc(N4CCC(C)CC4)cc(C)c3c2)c1`, the activation was inactive: -6.3%. `Cc1nn(C(=O)c2ccccc2F)c(C)c1S(=O)(=O)N1CCOCC1` was tested, and the activation was inactive: -0.54%. With `COc1ccc(Nc2ncnc3c2cnn3-c2ccc(C)cc2C)cc1` the activation was inactive: 6.28%. For `CCOc1ccccc1NS(=O)(=O)c1c(C)nc2sccn2c1=O`, the activation was inactive: 0.488%. For `COc1ccccc1C(=O)Nc1ccc2nc(N3CCC(C)CC3)cc(C)c2c1`, the activation was inactive: 20%. `CC(=O)c1cccc(NC(=O)Cn2c(=O)c(CNc3ccc(C)cc3)cc3cc4c(cc32)OCCO4)c1` was tested, and the activation was inactive: -10.2%. For `CCn1c(=O)c2cc(C(=O)N(CCCOC(C)C)Cc3ccco3)sc2c2ccccc21`, the activation was inactive: 41.8%. With `Cc1cc(C)c(NC(=O)Cn2c(SCC(=O)NCc3ccccc3)nc3ccccc32)c(C)c1` the activation was inactive: -4.81%. In the case of `Cc1ccc(-c2sc(C(=O)Nc3ccc(Br)cc3)cc2CC(=O)O)cc1`, the activation is reported as inactive: -15.1%. With `c1ccc(C(c2cccs2)c2c[nH]c3ccccc23)cc1` (configuration not stated) the activation was inactive: 44.3%. `Cc1cccc(-n2c(=O)c3c(c4cc(C)ccc4n3C)n(CC(=O)Nc3ccccc3C(F)(F)F)c2=O)c1` was tested, and the activation was inactive: -2.14%. `Oc1ccc(Cl)cc1Sc1cc(Cl)ccc1O` was tested, and the activation was inactive: 48%. With `COc1ccc(-c2nc3n(n2)C(c2ccccc2F)C(C(=O)Nc2cccnc2)=C(C)N3)cc1OC` (configuration not stated) the activation was inactive: -13.6%. For `Cc1ccc(CNc2ncnc3c2c(-c2ccccc2)cn3-c2cccc(Cl)c2)cc1`, the activation was inactive: -34.6%. `Cc1ccc(-c2noc(CN(C3CCCCC3)S(=O)(=O)c3ccc(Cl)cc3)n2)cc1` was tested, and the activation was inactive: -17.6%. In the case of `CCCCN(C(=O)c1cccc(S(=O)(=O)N2CCCCC2)c1)C1CCS(=O)(=O)C1` (configuration not stated), the activation is reported as inactive: -19.4%. With `COc1ccc(C2CC(=O)c3c([nH]c(C(=O)OC4CCC(C)CC4)c3C)C2)cc1OC` (configuration not stated) the activation was inactive: -6.14%. `O=C(Nc1ccc(F)c(Cl)c1)N1CCN2CCCCC2C1` (configuration not stated) was tested, and the activation was inactive: -10.7%. `COCCCNC(=O)c1sc2ncccc2c1-n1cccc1` was tested, and the activation was inactive: -12.2%. For `CCN(CC)c1ccc(-c2nc(-c3ccncc3)no2)cc1[N+](=O)[O-]`, the activation was inactive: 8.23%. With `Cc1ccc2cccc(NC(=O)c3cccc4ccccc34)c2n1` the activation was inactive: -11.5%. With `CCc1cccc2sc(N3CCN(C(=O)C4CC4)CC3)nc12` the activation was inactive: -23.5%. For `Cc1cc(NC(c2nnc(-c3ccccc3)o2)c2ccccc2F)ccc1Br` (configuration not stated), the activation was inactive: -9.58%. With `COc1ccc(NCc2ccccc2-c2nnc(-c3ccccc3)o2)cc1Cl` the activation was inactive: -10.5%. For `O[C@@H](CNC[C@H](O)[C@H]1CCc2cc(F)ccc2O1)[C@@H]1CCc2cc(F)ccc2O1`, the activation was active: 62.4%. In the case of `CCS(=O)(=O)Nc1cc(-c2cn3ccc(C)cc3n2)ccc1C`, the activation is reported as inactive: 25.7%. For `CC(C)(C)OC(=O)N1CCC(c2c(C(=O)N3CCc4ccccc4C3)cnn2-c2ccc(Cl)cc2)CC1`, the activation was inactive: -18.4%. For `CCOc1ccccc1C(=O)N(Cc1ccc(N(C)C)cc1)CC1CCCO1` (configuration not stated), the activation was inactive: -23.2%. For `CCN1C(=O)c2cccc3c(S(=O)(=O)Nc4ccc(O)c(C(=O)O)c4)ccc1c23`, the activation was inactive: -36.1%. For `Cc1cc(C)cc(C(=O)N2CC(=O)Nc3ccc(C)cc3C2c2ccccc2)c1` (configuration not stated), the activation was inactive: -12.5%. For `CCCCNC(=O)CSc1nc2cc3c(cc2c(=O)n1CCCC(=O)NCc1ccc2c(c1)OCO2)OCO3`, the activation was inactive: -9.79%. With `Cc1ccc(-n2nc3ccc(NC(=O)c4cc5ccccc5o4)cc3n2)cc1` the activation was inactive: -6.58%. `CCC(=O)Nc1sc2c(c1C(=O)Nc1ccccc1C)CCC(C)C2` (configuration not stated) was tested, and the activation was inactive: -3.6%. `Cn1c(=O)c2sccc2n2c(CCC(=O)N3CCN(c4ccccc4)CC3)nnc12` was tested, and the activation was inactive: -12.4%. For `O=C(O)c1cc(=O)[nH]c(=O)[nH]1`, the activation was inactive: -29.6%. In the case of `Cc1nc(N)nc(N)c1-c1ccc(Cl)c(Cl)c1`, the activation is reported as inactive: -1.65%. With `CCC(Cc1ccccc1)NC(=O)c1oc(=O)c2ccccc2c1-c1ccccc1` (configuration not stated) the activation was inactive: -12.2%. `CCOC(=O)c1cccc(NC(=O)NCCc2c(C)nn(C)c2C)c1` was tested, and the activation was inactive: 7.01%. In the case of `Cc1cccc(C)c1OCCCCn1c(C2CC(=O)N(c3ccc(F)cc3)C2)nc2ccccc21` (configuration not stated), the activation is reported as inactive: -30.8%. With `CCc1ccc(NC(=O)N2CCN(Cc3cc(=O)n4nc(-c5ccccc5OC)sc4n3)CC2)cc1` the activation was inactive: -9.19%. `COC(=O)c1ccccc1NC(=O)c1noc2c1CSc1ccccc1-2` was tested, and the activation was inactive: -2.94%. For `COc1ccc2nc(NC(=O)c3ccc(S(=O)(=O)N4CCC(C)CC4)cc3)sc2c1`, the activation was inactive: 24%. For `CC(=O)NCCCCCC(=O)O`, the activation was inactive: 5.21%. In the case of `CCn1c(=N)c(C(=O)NCc2cccnc2)cc2c(=O)n3cc(C)ccc3nc21`, the activation is reported as inactive: 21.2%. With `O=S(=O)(NCC(c1ccco1)N1CCN(c2ccc(F)cc2)CC1)c1ccccc1` (configuration not stated) the activation was inactive: -24.3%. In the case of `COC(=O)c1cc2occc2n1CC(=O)Nc1cccc(SC)c1`, the activation is reported as inactive: 18.7%. For `COc1ccc(-c2cc(C(=O)Nc3cc(C)ccc3O)no2)cc1OC`, the activation was inactive: -7.43%. In the case of `COc1ccc(-c2nc(CSCC(=O)NCCc3ccc(C)cc3)c(C)o2)cc1OC`, the activation is reported as inactive: -22.4%. `CCN(CC)CCCNC(=O)c1c(C)oc2ncnc(N3CCOCC3)c12` was tested, and the activation was inactive: -13%. `CCCCN(Cc1ccccc1)S(=O)(=O)c1ccc2c(c1)CC(C)N2C(=O)CC` (configuration not stated) was tested, and the activation was inactive: -2.07%. For `COc1ccccc1Cc1nc2ccccc2nc1SCC(=O)NCCc1ccccc1`, the activation was inactive: -19.4%. In the case of `CCOc1ccc(CNC(=O)c2ccc(NC(=O)c3nsc4ccccc34)cc2)cc1`, the activation is reported as inactive: -9%. For `Cc1c(C(=O)NCc2ccc(Cl)cc2)sc2nc3n(c(=O)c12)CCCC3`, the activation was inactive: -21.9%. For `O=c1n(CCCN2CCN(c3cccc(Cl)c3)CC2)nc2ccccn12`, the activation was inactive: 0.134% and inactive: -8.88%. In the case of `CCc1noc2nc(C)n(CC(=O)O)c(=O)c12`, the activation is reported as inactive: -1.34%. In the case of `CCOC(=O)Cn1cc2c(c1-c1ccc(Cl)cc1)c(=O)n(C)c(=O)n2C`, the activation is reported as inactive: -5.56%. With `CN(C(=O)CSc1nc2ccccc2n1CC(=O)NCc1ccc(F)cc1)c1ccc(F)cc1` the activation was inactive: -1.17%. In the case of `CCS(=O)(=O)c1ccccc1C(=O)N(Cc1cccnc1)c1nc2cc(C)c(C)cc2s1`, the activation is reported as inactive: -36.1%. With `COc1ccc(OC)c(-c2cc(C(=O)Nc3ccc(C)c(C)c3)no2)c1` the activation was inactive: -14%. For `O=C(CSc1nc2ccsc2c(=O)n1Cc1ccc(F)cc1)NCc1ccc(Cl)cc1`, the activation was inactive: 13.1%. For `Cc1cc(Nc2ccc(Br)cc2)n2nc(-c3ccccc3C)nc2n1`, the activation was inactive: -38.1%. With `CC1=C(C(=O)Nc2ccc(C)cc2C)C(c2ccccc2)n2nc(SCC(=O)c3ccc(C)cc3)nc2N1` (configuration not stated) the activation was inactive: -3.43%. `CN1c2ccc(Cl)cc2-c2nc(SCC(=O)NCc3ccc(F)cc3)ncc2S1(=O)=O` was tested, and the activation was inactive: 8.74%. For `CCCCCCOc1ccc(/C=C/C(=O)Nc2sc3c(c2C(=O)OC)CCC3)cc1OC`, the activation was inactive: 32.5%. With `CCc1ccccc1NC(=O)CCNS(=O)(=O)c1ccc2c(c1)CCCC(=O)N2` the activation was inactive: 30%. With `COc1ccc(NC(=O)Cn2c(=O)oc3ccccc32)cc1` the activation was inactive: -9.6%. With `Oc1ccc(-c2nc(-c3ccc(F)cc3)c(-c3ccncc3)[nH]2)cc1` the activation was inactive: -9.57%. For `CCC(C)c1ccc(OCC(=O)Nc2cccc3ccc(C)nc23)cc1` (configuration not stated), the activation was inactive: -26.1%. `Cc1nn(C)c2c1c(C(F)(F)F)cc(=O)n2CC(=O)NCc1ccc(OC(C)C)cc1` was tested, and the activation was inactive: 39.1%. In the case of `O=C(NCC(c1ccc2c(c1)OCO2)N1CCOCC1)c1ccccc1` (configuration not stated), the activation is reported as inactive: -15.4%. `Cc1c(O)nc(SCC(=O)Nc2ccc(Cl)cc2Cl)n(-c2ccc(F)cc2)c1=O` was tested, and the activation was inactive: -9.86%. `CCC(C)NC(=O)c1cc2cc(S(=O)(=O)N3CCCCC3)ccc2n1C` (configuration not stated) was tested, and the activation was inactive: -20.4%. In the case of `CCN1CCN(c2ncc3c(n2)CCN(Cc2cc(Br)cs2)C3)CC1`, the activation is reported as inactive: -34.1%. In the case of `CC(C)(C)c1ccc(CSC2=Nc3ccccc3C3=NC(CC(=O)NCc4cccs4)C(=O)N23)cc1` (configuration not stated), the activation is reported as inactive: -32.7%. With `C/C(=N/NC(=O)c1ccncc1)C(=O)O` the activation was inactive: -36.6%. `COc1cc(Cn2c(=O)oc3ccc(C)cc32)ccc1OCCC(C)C` was tested, and the activation was inactive: -19.6%. For `CC(C)(C)c1ccc(S(=O)(=O)N2CCC(Oc3ccc(-n4cnnn4)cc3)CC2)cc1`, the activation was inactive: -5.64%. For `Cc1cn(C)c(CC(=O)NCc2cccc(Cl)c2)c1C(=O)O`, the activation was inactive: -1.32%. With `O=C(CNC(=O)c1ccc(Cl)cc1)OCc1cc(=O)n2nc(C3CC3)sc2n1` the activation was inactive: -6.72%. In the case of `Cc1ccc(CNS(=O)(=O)c2ccc(N3CCCCS3(=O)=O)cc2)cc1`, the activation is reported as inactive: 25.1%. With `Cc1ccc(Cl)cc1NC(=O)Cn1c(=O)cc(C)c2c(C)nn(C)c21` the activation was inactive: -5.34%. With `Cc1cc(C)c(S(=O)(=O)Nc2ccc3oc(C)c(C(=O)OC(C)C)c3c2)cc1C` the activation was inactive: 26.9%. With `Cc1oc(-c2cccc(Cl)c2)nc1CN1CCC(C(=O)NC(C)C)CC1` the activation was inactive: -7.59%. With `O=C(COc1ccc(Br)cc1Br)Nc1ccc(S(=O)(=O)Nc2ncccn2)cc1` the activation was inactive: 35.9%. With `Cc1ccc(CNC(=O)CCNS(=O)(=O)c2ccc3c(c2)oc(=O)n3C)cc1` the activation was inactive: -3.54%. `Cc1ccc(-n2nc3cc(C)c(NC(=O)c4ccc(-c5ccccc5)o4)cc3n2)cc1` was tested, and the activation was inactive: -13.5%. With `COc1cccc(C2CC(=O)Nc3c2c(=O)n(C)c2nc4ccccc4n32)c1OC` (configuration not stated) the activation was inactive: 3.69%.

From PubChem BioAssay AID1346428 (National Center for Advancing Translational Sciences (NCATS), 2018)
Note: 0% is about no effect.
